The whole screen tested about 310,000 compounds, of which about 14,000 (4.5%) showed an effect of 50% or more. Effects have a minus sign here. Some of the results follow. Where a SMILES comes first, the peptide text is derived from it. The star is where a group is joined. Boc = CC(C)(C)OC(=O)*; OBn = c1ccc(CO*)cc1
The compounds below were run against human ether-à-go-go-related gene (hERG) potassium channel (human, UniProt Q12809) (assay: primary screen, population patch clamp on CHO cells stably expressing hERG).
Sequence of human ether-à-go-go-related gene (hERG) potassium channel (Q12809 whole entry, looked up): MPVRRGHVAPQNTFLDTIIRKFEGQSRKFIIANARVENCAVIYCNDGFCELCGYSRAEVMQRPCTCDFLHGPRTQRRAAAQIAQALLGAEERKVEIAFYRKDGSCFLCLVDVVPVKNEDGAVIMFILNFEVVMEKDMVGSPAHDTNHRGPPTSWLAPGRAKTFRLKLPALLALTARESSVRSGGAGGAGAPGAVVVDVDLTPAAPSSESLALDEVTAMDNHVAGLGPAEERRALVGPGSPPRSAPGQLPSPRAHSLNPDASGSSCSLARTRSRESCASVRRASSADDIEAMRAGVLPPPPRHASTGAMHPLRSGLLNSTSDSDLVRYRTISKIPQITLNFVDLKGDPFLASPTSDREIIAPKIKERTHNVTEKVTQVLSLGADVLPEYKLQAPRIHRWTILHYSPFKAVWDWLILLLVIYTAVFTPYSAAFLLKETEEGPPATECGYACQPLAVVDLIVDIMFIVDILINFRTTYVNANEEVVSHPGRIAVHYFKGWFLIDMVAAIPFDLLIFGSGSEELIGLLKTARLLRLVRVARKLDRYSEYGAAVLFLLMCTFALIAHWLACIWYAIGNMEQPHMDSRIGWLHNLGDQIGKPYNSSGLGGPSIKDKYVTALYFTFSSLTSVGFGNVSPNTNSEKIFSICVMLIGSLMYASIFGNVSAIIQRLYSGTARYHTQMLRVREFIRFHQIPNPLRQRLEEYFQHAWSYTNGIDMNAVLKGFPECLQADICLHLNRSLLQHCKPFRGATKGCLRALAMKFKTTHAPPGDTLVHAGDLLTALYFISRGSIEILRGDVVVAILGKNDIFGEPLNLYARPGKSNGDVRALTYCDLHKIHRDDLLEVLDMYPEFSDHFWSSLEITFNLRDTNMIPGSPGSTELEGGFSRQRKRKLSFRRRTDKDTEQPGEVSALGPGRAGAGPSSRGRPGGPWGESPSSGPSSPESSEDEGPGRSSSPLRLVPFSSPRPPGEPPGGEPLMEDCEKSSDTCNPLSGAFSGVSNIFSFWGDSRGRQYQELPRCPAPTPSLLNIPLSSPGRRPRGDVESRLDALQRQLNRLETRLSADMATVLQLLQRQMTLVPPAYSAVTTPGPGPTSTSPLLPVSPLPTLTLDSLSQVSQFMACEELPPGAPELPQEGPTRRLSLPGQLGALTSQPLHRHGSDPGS
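Further: peak tail current of the secondary pulse compared with the same well before compound.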

Row | SMILES | hERG current change (%, negative = inhibition) at 10uM [%]
1 | Cc1nnc(C)n1N | 12.1
2 | Cc1nn(-c2cccc(C(=O)O)c2)c(C)c1[N+](=O)[O-] | 15.6
3 | CCOC(=O)c1ccc2c(c1)nc(COc1ccc(OC)cc1)n2CC | -8.73
4 | Cc1occc1-c1nc(-c2ccccn2)no1 | 2.31
5 | CCNC(=O)Nc1cc(OC)c(OC)cc1C(=O)O | 4.84
6 | COc1ccc2c(CC(=O)NCc3ccc4c(c3)OCO4)coc2c1 | 0.281
7 | CN1CCN(C(=O)/C(=C/c2ccccc2Cl)NC(=O)c2ccccc2)CC1 | -10.8
8 | O=[n+]1cc(-c2ccc(Br)cc2)n([O-])c2c1CCC2 | 1.93
9 | CCOC(O)[C@H]1N[C@@H](c2ccc(Cl)cc2)[C@@H]([N+](=O)[O-])[C@@H]1c1ccccc1 (some centres unmarked) | -37
10 | O=C(Nc1cccc(S(=O)(=O)N2CCOCC2)c1)c1ccc2c(=O)n3c(nc2c1)CCCCC3 | -73.3
11 | Cc1nnc(SCC(=O)NC(=O)NC2CCCC2)n1N | 14.9
12 | CC(NC(=O)OC(C)(C)C)C(=O)NC(CCC(=O)OCc1ccccc1)C(N)=O (stereo not drawn) (Boc-Ala-Glu(OBn)-NH2; configuration not given here) | 11.7
13 | NC(=O)CC(NC(=O)c1ccccc1)c1ccc(N2CCN(c3ccc(F)cc3)CC2)c([N+](=O)[O-])c1 (centres unmarked) | 16.2
14 | Cc1ccc(S(=O)(=O)NN2C(=O)/C(=C\c3ccc(Cl)cc3)SC2=S)cc1 | 18.8
15 | O=C(O)C1CC=CCC1C(=O)NNc1ccccc1 (centres unmarked) | 19.7
16 | CN(CC(=O)Nc1c(Cl)cccc1Cl)C(=O)c1cccc(S(=O)(=O)NCc2ccccc2)c1 | -23.2
17 | Cc1cc(C)cc(NC(=O)C(NCCN2CCOCC2)c2ccccc2)c1.O=C(O)C(=O)O (centres unmarked) | -7.91
18 | CCCCN(C)CCNC(=O)c1nn(-c2ccc(OC)cc2)c(=O)c2c1c1ccccc1n2C | -26.3
19 | CCN(Cc1ccccc1)C(=O)C1CCN(Cc2ccc(SC)cc2)CC1.O=C(O)C(=O)O | -71.8

Row | SMILES | hERG current change (%, negative = inhibition) at 10uM [%]
20 | Cc1noc2ncnc(Sc3c(Cl)cccc3Cl)c12 | 14.6
21 | COc1ccc(CC(=O)OCC(=O)Nc2ccc(C(=O)Nc3ccc(OC)cc3)cc2)cc1 | 13.1
22 | Brc1ccc(/C=N/Nc2ccc3ccccc3n2)cc1 | -13.1
23 | O=c1[nH]ncc(N2CCCC2)c1Cl | 20.9
24 | CCOC(=O)N1CCN(Cc2nc(N)nc(Nc3ccccc3C)n2)CC1 | -14.9
25 | O=C(O)Cn1ccnc1 | 4.81
26 | CNC(=O)CSCc1c(F)cccc1Cl | 17.8
27 | CCCc1cc(=O)oc2cc(OCC(=O)Nc3ccc(CN4CCOCC4)cc3)c(Cl)cc12 | -3.61
28 | CCc1nnc(NC(=O)C2CCCCN2S(=O)(=O)c2ccccc2)s1 (centres unmarked) | 8.18
29 | COc1ccc(C(=O)CSc2nnnn2C)c(OC)c1 | 22.2
30 | Cc1nc(Cl)c(C(=O)NCCc2ccccc2)c(C)c1[N+](=O)[O-] | 15.5
31 | O=C(NCc1ccccn1)Nc1ccc(F)cc1 | 11.9
32 | CC(=O)Nc1ccc(NC(=O)C2CCCN2C(=O)Nc2cccc(F)c2)cc1 (centres unmarked) | 24.5
33 | Cc1cc(NC(=O)CSc2nnc(CNc3ccc(F)cc3)n2C2CCCCC2)no1 | -11.9
34 | O=C(CSc1nnc(-c2ccncc2)o1)NCc1ccccc1Cl | -2.67
35 | Cc1nnc(SCC(=O)Nc2nc(-c3ccccc3)cs2)n1N | 2.68
36 | CCOc1ccc(N2CC(C(=O)NC3=NCCS3)CC2=O)cc1 (centres unmarked) | 3.35
37 | COc1cc(NS(=O)(=O)c2ccc(NC(=S)NC(=O)c3ccc(Br)cc3)cc2)ncn1 | 15.6
38 | COc1ccc(/C=C/c2cc(-c3ccc(C)cc3)o[n+]2C)cc1.F[B-](F)(F)F | -77.1

Row | SMILES | hERG current change (%, negative = inhibition) at 10uM [%]
39 | CCCC(=O)N1c2ccc(-c3csc(N)n3)cc2CC1C (centres unmarked) | -7.26
40 | Cc1occc1C(=O)NNC(=O)NC12CC3CC(CC(C3)C1)C2 | 2.5
41 | O=C(O)c1cc(NS(=O)(=O)c2ccc(N3CCOCC3)c([N+](=O)[O-])c2)cc(C(=O)O)c1 | 5.06
42 | O=C1CN(C(=O)/C=C/c2ccccc2F)c2ccccc2N1 | -2.56
43 | N/C(=N\OC(=O)COc1ccc(Br)cc1)c1cccnc1 | -3.21
44 | Cc1cc(-n2c(C)cc(C(=O)COc3ccc(F)c(F)c3)c2C)no1 | -34.4
45 | Cc1cccc(C)c1NC(=O)CN(c1ccccn1)S(=O)(=O)c1ccccc1 | 15.7
46 | COc1ccccc1/C=C/C(=O)NC(=S)N(C)C1CCCCC1 | 1.35
47 | CCOc1ccc(C(=O)Nc2cccc(-n3cnnn3)c2)cc1OCC | -40.4
48 | O=c1[nH]c2ccc(Cl)cc2c(O)c1Cc1ccccc1 | 12.6
49 | CCC(=O)Nc1cc(C(=O)O)ccc1Sc1ccccc1 | 34.5
50 | CNC(=S)N(Cc1ccc(OC)cc1)Cc1cc2ccc(C)cc2[nH]c1=O | 14
51 | O=C(CNc1cc(S(=O)(=O)N2CCCC2)ccc1OCC(F)(F)F)Nc1ccc(SC(F)F)cc1 | -14.2
52 | CCc1cccc(NC(=O)c2ccc3c(=O)n4c(nc3c2)CCCCC4)c1 | -76.6
53 | COc1cc(OC)cc(C(=O)N2CCN(c3ccc(N4CCOCC4)nn3)CC2)c1 | -4.52
54 | Cc1ccc(-c2nc(C#N)c(N3CCCCC3)o2)cc1 | 4.17
55 | CCN(Cc1ccc(OC)c(F)c1)C(=O)CCl | 54.4
56 | COc1ccc(CCNc2cc(C)nc3c(-c4ccccc4)cnn23)cc1OC | -4.34

Source: publication PMC4336329 (PLoS ONE, 2015)
